# Measured values as given in PubChem BioAssay AID463173 (ICCB-Longwood Screening Facility, Harvard Medical School, 2010).
# Out of some 52,000 compounds screened, about 4,300 (8.3%) were called active. Cut-off read from the data, not from the text of the source: active = survival mostly below about 52% (no sharp cut-off); inactive = mostly above about 56%. The list shows a part of the results.
# System: DeltatarO mutant
# Assay: growth inhibition of S. aureus wild type versus tarO mutant, primary screen, teichoic acid synthesis inhibitors, RN4220, OD600 (AID 463173)
# Details: OD600, 18 h, active compounds read low, screened at 18.75 µg/mL (by protocol)
row,Compound,survival
1,CC1CN(C(=O)N2CCC(C(=O)NCc3ccco3)CC2)c2cc(Cl)ccc2O1 (stereo not drawn),inactive: 56%
2,COc1ccc(NC(=O)c2cc(-c3ccccc3O)no2)cc1,inactive: 69%
3,O=C(CCc1ccccc1)NNc1cc(N2CCCCC2)nc(N2CCCCC2)n1,inactive: 57%
4,COc1ccc2[nH]c3c(=O)n(/N=C/c4ccccc4)cnc3c2c1,inactive: 97%
5,CCOc1ccc(NC(=O)CNS(=O)(=O)c2ccc(Br)s2)cc1,inactive: 49%
6,O=C(CSc1nc(-c2cccs2)nc2cc(=O)[nH]n12)Nc1ccc(F)cc1,inactive: 86%
7,Cc1ccc(OCc2nc(-c3ccc(C(=O)NCCc4ccc(S(N)(=O)=O)cc4)cc3)oc2C)cc1,inactive: 83%
8,COc1ccc(CNC(=O)c2c(Nc3ccccc3C)sc(C(=O)c3ccccc3)c2N)cc1,inactive: 96%
9,O=C(Nc1ccc2nc(SCC(=O)N3CCCC3)sc2c1)c1ccccc1F,inactive: 62%
10,COc1ccccc1CNC(=O)CN1C(=O)CCc2cc(S(=O)(=O)N3CCOCC3)ccc21,inactive: 135%
11,CCc1ccc(NC(=O)CCCc2nc(-c3ccco3)no2)cc1,inactive: 81%
12,COc1cc2[nH]c(=O)n(CCCC(=O)NCc3ccccc3)c(=O)c2cc1OC,inactive: 137%
13,Cc1cc(C)c(NC(=O)CSc2ncc(S(=O)(=O)c3ccc(C(C)(C)C)cc3)c(=O)[nH]2)c(C)c1,inactive: 53%
14,O=C(NC1CCCC1)c1ccc2c(c1)N(Cc1ccccc1Cl)C(=O)c1ccccc1S2,inactive: 94%
15,Cc1ccc(Cl)cc1NC(=O)CSc1nc(C)c(C)c(C)c1C#N,inactive: 54%
16,COc1ccc(-c2noc(CSc3nnc(-c4ccc(Cl)cc4)n3C)n2)cc1OC,inactive: 64%
17,COc1ccc(CCNC(=O)Cn2cc(S(=O)(=O)Cc3cccc(Cl)c3)c3ccccc32)cc1OC,inactive: 120%
18,CCc1cnc2c(c1SCC(=O)Nc1cc(Cl)ccc1OC)c(=O)n(C)c(=O)n2C,inactive: 101%
19,CCOC(=O)c1cnc2c(C(F)(F)F)cccc2c1Nc1cccc(C(=O)OC)c1,active: 14%
20,CC(C)NC(=O)C1CCCN1C(=O)Nc1ccccc1 (stereo not drawn),inactive: 108%
21,CCOc1ccccc1NC(=O)CSc1nc2c(oc3ccccc32)c(=O)n1Cc1ccco1,inactive: 69%
22,CN1CCN(C(=O)Nc2cccc(Cl)c2)c2cccnc21,inactive: 110%

row,Compound,survival
1,Cc1ccc(CNC(=O)C2CCCN(S(=O)(=O)c3ccc4c(ccn4C)c3)C2)cc1 (stereo not drawn),inactive: 102%
2,CCCCN(CCCC)CCNC(=O)c1cc(=O)[nH]c2ccc(S(=O)(=O)N3CCCCCC3)cc12,inactive: 109%
3,CC(C)c1ccc(NC(=O)CSc2nc(=O)n(Cc3cccnc3)c3c2CCC3)cc1,inactive: 129%
4,CCOC(=O)c1[nH]c2ccccc2c1NC(=O)c1cc(OCC)c(OCC)c(OCC)c1,inactive: 97%
5,Cc1cc(=O)n2nc(N3CCC(C(=O)NCc4ccc(Cl)cc4)CC3)sc2n1,inactive: 99%
6,Cc1ccc2onc(CC(=O)N3CCN(c4cccc(C)c4C)CC3)c2c1,active: 39%
7,CCOc1ccc(NC(=O)Cn2c(CCC(=O)O)ccc2-c2ccc(C)cc2)cc1,inactive: 65%
8,CCc1ccc2[nH]c(=O)c(CN(Cc3ccccc3)Cc3nnnn3C3CCCC3)cc2c1,inactive: 85%
9,Clc1ccc(Nc2nc(-c3ccccc3)c3cc(Cl)ccc3n2)cc1,inactive: 54%
10,COc1ccc(-c2noc(CSc3nnc(-c4ccncc4)n3-c3ccc(C)c(C)c3)n2)cc1,inactive: 63%
11,CNC(=O)c1ccc(NC(=O)COc2ccc(-c3nn(C)c(=O)c4ccccc34)cc2)cc1,active: 62%
12,CC(Cc1c[nH]c2ccccc12)NC=O (stereo not drawn),inactive: 107%
13,Cc1ccc(OCC(=O)N(Cc2sccc2C)C2CCS(=O)(=O)C2)cc1 (stereo not drawn),inactive: 113%
14,COc1cc2nc(SCC(=O)Nc3cccc(C)c3)n3nc(-c4ccccc4)nc3c2cc1OC,inactive: 75%
15,Cc1ccc([N+](=O)[O-])cc1S(=O)(=O)N1CCn2cccc2C1c1ccc(F)c(F)c1 (stereo not drawn),inactive: 80%
16,COc1ccc(-c2nc(Cn3c(SCc4ccc(F)cc4)nc4cccnc43)c(C)o2)cc1,inactive: 88%
17,COc1ccc(CNC(=O)C(OC(=O)c2cc3sccc3n2C(C)C)C(C)C)cc1 (stereo not drawn),inactive: 53%
18,CCCn1c(N2CCN(C(=O)/C=C/C(=O)O)CC2)nc2ccccc21,inactive: 96%
19,CC(=O)c1cccc(NC(=O)c2ccc3nc(C(C)C)oc3c2)c1,inactive: 71%
20,COc1cc(NC(=O)CC(C)S(=O)(=O)c2cc3c4c(c2)CCN4C(=O)CC3)cc(OC)c1 (stereo not drawn),inactive: 67%
21,Cc1ccccc1C(=O)Nc1cccc(C(=O)OCc2cc(=O)n3nc(C4CC4)sc3n2)c1,inactive: 79%
22,CC(C)(C)c1cc(N=NC(=O)c2ccco2)cc(C(C)(C)C)c1O,inactive: 91%

row,Compound,survival
1,COc1ccc(Cn2c(CO)cnc2SCC(=O)NCc2ccco2)cc1,active: -5%
2,Cc1ccc(C)c(CN2C(=O)c3ccccc3Sc3ccc(C(=O)NCc4ccc5c(c4)OCO5)cc32)c1,inactive: 89%
3,O=C(Cn1nc(-c2ccc3c(c2)OCCO3)ccc1=O)Nc1cccc2cccnc12,inactive: 88%
4,COc1cc2ncc3c(-c4ccccc4)nn(-c4ccc(C)cc4)c3c2cc1OC,active: 47%
5,CC(C)c1ccc(NC(=O)C(Cc2ccccc2)NS(=O)(=O)c2ccc3c(c2)CCC(=O)N3)cc1 (stereo not drawn),inactive: 64%
6,COc1cccc(CNC(=O)CN(C)S(=O)(=O)c2ccc3c(c2)c(=O)n(C)c(=O)n3C)c1,inactive: 90%
7,Cn1nnnc1SCCNCc1ccccc1Cl,inactive: 71%
8,Cc1ccc(OCC(=O)Nc2ccc3nc(SCC(=O)N(C)c4ccccc4)sc3c2)cc1,inactive: 71%
9,CCOC(=O)c1cc(-c2ccc(OC)cc2)nn1Cc1ccccc1,inactive: 66%
10,Cc1ccc(CSc2nc3c(c(=O)[nH]2)C(c2cccc(F)c2F)CC(=O)N3)cc1 (stereo not drawn),inactive: 94%
11,CC(C)(CO)NC(=O)C1CC(c2c(F)cccc2Cl)=NO1 (stereo not drawn),inactive: 96%
12,COc1ccc(N2CCN(C(=O)c3nn(-c4ccc(C)cc4)c(=O)n(C)c3=O)CC2)cc1,inactive: 71%
13,Cc1ccc(Cn2c(C)c(CNCc3ccc(OC(C)C)cc3)c(C(=O)O)c2C)cc1,inactive: 121%
14,CCCCOc1ccc(C(=O)N(Cc2nc(-c3ccc(Cl)cc3)no2)C(C)C)cc1,inactive: 59%
15,CCOc1ccc(CCNC(=O)c2ccc(CS(=O)Cc3ccc(Cl)cc3)o2)cc1 (stereo not drawn),inactive: 51%
16,Cn1c(=O)oc2cc(S(=O)(=O)N3CCC(C(=O)N4CCN(c5cccc(Cl)c5)CC4)CC3)ccc21,inactive: 82%
17,CN1CCc2c(sc3c2C(=O)NC(c2ccc(OC(=O)c4ccc(Cl)cc4)cc2)N3)C1 (stereo not drawn),inactive: 58%
18,CC(=O)N1CCc2cc(Br)cc(S(=O)(=O)CCC(=O)NCCc3ccc(Cl)cc3)c21,active: 44%
19,CCC1Oc2ccc(C)cc2N(CC(=O)Nc2ccc3c(c2)OCCO3)C1=O (stereo not drawn),inactive: 104%
20,N#C/C(=C\c1ccc(-c2ccc(C(=O)O)cc2)o1)c1nc2ccccc2[nH]1,inactive: 77%
21,COc1ccc(Cl)cc1NC(=O)Cn1cc(S(=O)(=O)Cc2cccc(Cl)c2)c2ccccc21,inactive: 83%
22,CCc1ccccc1Nc1nn2c(=O)c3ccc(C(=O)NCc4ccccc4Cl)cc3nc2s1,inactive: 99%

row,Compound,survival
1,CCCN1C(C(=O)c2ccccc2)=C(OC(=O)c2ccc(C)cc2)c2ccccc2S1(=O)=O,inactive: 52%
2,Cc1cccc(NC(=O)CSc2nc(=O)n(Cc3cccnc3)c3c2CCC3)c1,inactive: 107%
3,COc1ccc(NC(=O)c2c(C)oc3ccc(O)c(CN4CCOCC4)c23)cc1,inactive: 81%
4,CCc1nnc(NC(=O)CC2CC3CCC2C3)s1 (stereo not drawn),inactive: 64%
5,O=C(COc1ccc(Cl)cc1)NCCc1csc(-c2cccc(F)c2)n1,inactive: 99%
6,CCOc1ccc(NC(=O)c2oc3ccccc3c2NC(=O)Cc2cccc(C)c2)cc1,inactive: 88%
7,COc1ccc(OC)c(NS(=O)(=O)c2ccc(Br)s2)c1,active: 37%
8,COc1ccc(C(=O)Oc2ccc(C(c3c(C)[nH][nH]c3=O)c3c(C)[nH][nH]c3=O)cc2OC)cc1,inactive: 71%
9,Cc1ccc(NC(=O)CSc2nc(-c3ccco3)cc(C(F)(F)F)n2)cc1C,active: 33%
10,O=C(COCc1cc(-c2ccco2)on1)Nc1cccc(Cl)c1Cl,active: 32%
11,Cc1ccc(NC(=O)c2nc(-c3ccncc3)no2)c(Cl)c1,inactive: 108%
12,COc1ccc(C2N3CC4(C)CN2CC(c2ccccc2)(C3)C4=O)cc1 (stereo not drawn),inactive: 91%
13,CCOc1ccccc1-n1nnc(S(=O)(=O)c2ccc(C)cc2)c1N,inactive: 72%
14,CC(=O)NC1C(OC2CCCCC2)OC(CO)C(O)C1O (stereo not drawn),inactive: 93%
15,COc1cc(NC(=O)c2ncn(-c3ccccc3)n2)cc(OC)c1,inactive: 63%
16,Cn1ncc(C(=O)N2CCN(c3ccccc3F)CC2)c1C1CCN(C(=O)OC(C)(C)C)CC1,inactive: 71%
17,CC(=O)c1ccc(NC(=O)CSc2nccn2Cc2ccc3c(c2)OCO3)cc1,inactive: 102%
18,Cc1cc(SCC(=O)NCc2ccc(F)cc2)nc(=O)[nH]1,inactive: 81%
19,CCOC(=O)c1cccc(NC(=O)C2CCCN(S(=O)(=O)c3cc(Br)cc4c3N(C(=O)CC)CC4)C2)c1 (stereo not drawn),inactive: 83%
20,COc1ccc(CN(C(=O)Cc2coc3ccc(C)cc23)C2CCS(=O)(=O)C2)cc1 (stereo not drawn),inactive: 67%
21,CCc1cccc(NC(=O)CCN2C(=O)c3ccccc3Sc3ncccc32)c1,inactive: 67%
22,Cc1cc(=O)n2nc(N(C)CC(=O)NCc3ccc(Cl)cc3)sc2n1,inactive: 92%
